According to PMC12136788:
The list shows a part of the results.

B1: chr1:155263244:155263345:-|CDS|ENSG00000176444|unk|total|mutant (ssRNA)
RNA: GGGAGUUCUACAGUCCGACGAUCGUAUCUGACCUCAGAGGCAGAGGAACACCACCAGCUCUUCGAUCUGAUUGAAAGCAUGCCCGAGUAUGAACCAGCUAAGCGGCUGACCUUGGGUGAAGCCCUUCAGCAUCCUUUCUUCGCCAACAGAGGAUUGAGCAUCA
B2: chr22:49888080:49888186:+|3pUTR|ENSG00000100426|unk|total|mutant (ssRNA)
RNA: GGGAGUUCUACAGUCCGACGAUCUGGCUUAUUAACAGGGAAGAAGCUUGUUAUAUUCCAGUUGUAAGAACCGCCUCCGUGUUCCGAUUUUUUUAUGACCGGGAAGAUGCGGCCAUCACUGGGAUAUUUUCAAAUCCCAAGGACCAACAGAGGAUUGAGCAUCA
B3: chr7:139284418:139284519:+|CDS|ENSG00000157741|unk|total|mutant (ssRNA)
RNA: GGGAGUUCUACAGUCCGACGAUCGCAAUGAAUGUACCUGCCAGCAGAGGCCGCAACCUUAACUCAAGCGGAGCUAACCGGACCCGUCUGUCUGGGGGAACAGGAAGUGGAACACAGGGUGCUACCAAACCAUUGUCUACUCCACAACAGAGGAUUGAGCAUCA
B4: chr8:94249252:94250309:-|three_prime_utr|ENSG00000164949|control|control|control (ssRNA)
RNA: GGGAGUUCUACAGUCCGACGAUCUCACCCAGAUGUCCCUUUGAUGGCCGUUGUUGAAGGCCAUUGGGACCAAUAAUCUAUAUUAGAUUGAAUACUUAAGUUAGAUGUGGUUUCCCCCAUUGUAGCAGGGAGCUAGCGUAUUAGCAACAGAGGAUUGAGCAUCA
B5: chr1:20742972:20743075:-|3pUTR|ENSG00000127483|unk|FALSE|unique (ssRNA)
RNA: GGGAGUUCUACAGUCCGACGAUCUAACCCUUUCUUAUUUGUAUUUGUUUUAGUAUUGUGAAGUUGUGUUAAAUAGUACUAGCUAGAAAUACAAAUUUCUGGUUAUCAUUUCUCUUCCCUGUGGCACUUGACAUUUUAAUUGUCCAACAGAGGAUUGAGCAUCA
B6: chr14:73275881:73276001:-|3pUTR|ENSG00000133961|unk|total|mutant (ssRNA)
RNA: GGGAGUUCUACAGUCCGACGAUCAAAUAUUAUAUAUAUCAAAAGCCAAAAUCUUUAUUUUUAUGCAUUCCGAAUAUUUUAAACCGUUCUCAGAUAUUAAGAAGUUGUAUGAGUUGUAAGUAAUCUUGCCAAAGGUAAAGGGGCCAACAGAGGAUUGAGCAUCA
B7: chr21:25606471:25606579:-|CDS|ENSG00000154719|unk|total|mutant (ssRNA)
RNA: GGGAGUUCUACAGUCCGACGAUCUGAUCUCUUUAAUAAAGAGAAAGCCAGGCAGUUAUCAUUAACUCCCCGAACUGAGAAGACCGAAGUUAAGCAUGUUGGGAAAACUGACCCCGGUACUGUCUUCGUGAUGAAUAAAAACAUCAACAGAGGAUUGAGCAUCA
B8: ENSG00000120616:stop:overlap|stop_codon|ENSG00000120616|stop_codon|NA|stop_codon (ssRNA)
RNA: GGGAGUUCUACAGUCCGACGAUCAAUCAGAAAAGCCAGCACUGAACAACAUAGCAGACAACACAGUAGCGAUGGAGGUGACGUAGCUUCCUCCGAGUGGAACUGCAGCCUGGGGACUUGAUUAGGUGCUAUGCAUCAGUAGCACAACAGAGGAUUGAGCAUCA
B9: chr3:179570125:179570235:+|CDS|ENSG00000136518|unk|FALSE|unique (ssRNA)
RNA: GGGAGUUCUACAGUCCGACGAUCAAGCACAUUAAUGGAAAUAGAUGGCGAUAAAGGCAAACAAGGCGGUCCCACCUACUACAUAGAUACUAAUGCUCUGCGUGUUCCGAGGGAGAAUAUGGAGGCCAUUUCACCUCUAAAAAACAACAGAGGAUUGAGCAUCA
B10: chr6:134169319:134169461:-|3pUTR|ENSG00000118515|unk|total|mutant (ssRNA)
RNA: GGGAGUUCUACAGUCCGACGAUCUGCAUUCCUGAUAAUUGUAUGUAUUGUAUAAAGAACGUCUGUACAUUGGGUUAUAACACCCGUAUAUUUAAACUUACAGGCUUAUUUGUAAUGUAAACCACCAUUUUAAUGUACUGUAAUCAACAGAGGAUUGAGCAUCA
B11: chr11:119418913:119419014:-|3pUTR|ENSG00000154096|msi1|total|mutant (ssRNA)
RNA: GGGAGUUCUACAGUCCGACGAUCAUCGGGACCAGAAACCUGGGAGAGACUUGGAUGAGGAGUGGUUGGGCUGUGCCUGGGCCCCGCACGGACAUGGUCUGUCCUGACAGCACUCCUCGGCAGGCAUGGCUGGUGCCUGAAGACCAACAGAGGAUUGAGCAUCA
B12: chr17:5384886:5384987:+|3pUTR|ENSG00000029725|unk|FALSE|unique (ssRNA)
RNA: GGGAGUUCUACAGUCCGACGAUCGGUUUAAGACUAGUCCCUUGGAUAAGCCCCAAGCGAAUUUGUCUUCAGAUUAUUAAAAUUAGUGCUGUAAAUCAGGGUGGGCAAUUCACAGCCUUUCUGAACUGACUGAACUAGAGCUUGCAACAGAGGAUUGAGCAUCA
B13: chr12:39618871:39619093:-|CDS|ENSG00000173208|unk|FALSE|unique (ssRNA)
RNA: GGGAGUUCUACAGUCCGACGAUCUAUUAUGAUGUUCUCCCAAUCUGUGGCUCACUUGUAUUCCAAUCUGACCAAACCUAUUUUAGAUGUAAUGCUGACCUCCUAUACACUCAUUCAAACUGCUACAUCCAGAGGAGCAAGCCCCAACAGAGGAUUGAGCAUCA
B14: ENSG00000107863:be:win_1701|CDS|ENSG00000107863|bound_else_gene|NA|bound_elsewhere_windowed (ssRNA)
RNA: GGGAGUUCUACAGUCCGACGAUCUGAUAACAGGCGAAUGAGUGGUAGAGGAGUGGGAUCUGUGUCGCAGUUUAAAAAAAUUCCACCAGAUCUAAAAACAUUGCAGUCAAACAGAAAUUUUCAGACUACUUGUGGAAUGUCACUCAACAGAGGAUUGAGCAUCA
B15: chr11:7467339:7467451:+|3pUTR|ENSG00000170743|unk|FALSE|unique (ssRNA)
RNA: GGGAGUUCUACAGUCCGACGAUCCCAAGAGAAUACCAAGACAAGCAGGCUGUUCCCUGGAAAAAAUCUAAUGCAAGGAGGGCUAGUUCACAGCAAAUUCACUGCCUCCUCCCAUGCACGUGGUAGAGAGUACCAGUAUCAACACAACAGAGGAUUGAGCAUCA
B16: ENSG00000139233:stop:overlap|stop_codon|ENSG00000139233|stop_codon|NA|stop_codon (ssRNA)
RNA: GGGAGUUCUACAGUCCGACGAUCAGAAAAGAAAGGGGAAAAGCAAAGCAAAAGCAGUGAAAGUGGCAAAGGGUUUGGCCUGGUAGACUCUUAAAACCUUGGAAAAUGCCACAUGGGAUAGAUGACGGAUUAGAAUGUAUACACCAACAGAGGAUUGAGCAUCA
B17: chr19:12875797:12875908:-|3pUTR|ENSG00000105612|unk|FALSE|unique (ssRNA)
RNA: GGGAGUUCUACAGUCCGACGAUCUUCGAGACCAGCCUGGGCUACAUAGUGAGACCACAUCUCUACUAGAACUUAAAAAAAGUUAGCCAGGCACGGUGAUAAAUGCCUGUAGUCCCAGCCACUGAAGCCAGAGGAUCGAUUGAACAACAGAGGAUUGAGCAUCA
B18: ENSG00000070961:be:win_4351|3pUTR|ENSG00000070961|bound_else_gene|NA|bound_elsewhere_windowed (ssRNA)
RNA: GGGAGUUCUACAGUCCGACGAUCGAAAAAAACAAAACAAAACAAAAAAACAUGAGCAGUGGUGUUCUAAUGAAGUUAUGACAUCUGUCCUAAUUAGUUUCUUAAAUACAUUUACUACUUAAUGGUUUUGAAGCAACUGUUUAACAACAGAGGAUUGAGCAUCA
B19: chr12:109554177:109554278:-|3pUTR|ENSG00000139428|unk|FALSE|unique (ssRNA)
RNA: GGGAGUUCUACAGUCCGACGAUCUUGCUAUGUGCAGUGCCCUGAGCCAAGUGUUCCACAGACAUUAUCUCAUUUGAACCCCAUAGCAGCCCUGGAAGGAGGCAUUGGGUGGGGAACCAAGUUGUCCUGGGGAGUCAGUGCCAACAACAGAGGAUUGAGCAUCA
B20: chr10:80519475:80519574:+|3pUTR|ENSG00000108219|msi1_unk|FALSE|overlapping (ssRNA)
RNA: GGGAGUUCUACAGUCCGACGAUCAGUGUGGUGUAUACUGGUGGCUGUUGAUGAUGAUUUUUUUUUUUUUACACAAUUCUCUGUAGACUAGGAGAAGAAUGCUUGUGUUUUUCGGAAGUGUGAUGCUUCUCUUUGACUGCCAAACAACAGAGGAUUGAGCAUCA
B21: chr11:43494716:43494817:+|3pUTR|ENSG00000052841|unk|total|mutant (ssRNA)
RNA: GGGAGUUCUACAGUCCGACGAUCGUUACCCAUCUUGGAAUAAGUUGUGAAUGUCAGCUCCCUCUCUCUGAGGCCUCCAGACUCCGCUCCUCAGGAGGGUAAUGAGCCAAGGUUGAGUGUUUCCAUACAAUGCUUUUACCUUUGCAACAGAGGAUUGAGCAUCA
B22: chr11:118751385:118751486:-|3pUTR|ENSG00000110367|msi1|total|mutant (ssRNA)
RNA: GGGAGUUCUACAGUCCGACGAUCUUGAAGUCUCUUCCCUUUCUACCCAGUACUCGAGCCCAGGGCCCGAAGUUGAAACUCACCCGUAAUGUUAAACACCAUUUUUUUUUUCUUUUUGGGGAGGAGUUGAUAUGCAACUGCAGUCAACAGAGGAUUGAGCAUCA

molecular target: MSI1 full-length (mouse, UniProt Q61474 1-362); experiment: nsRBNS (natural sequence RNA bind-n-seq); RBNS binding buffer (assumed for nsRBNS): 25 mM Tris pH 7.5, 150 mM KCl, 3 mM MgCl2, 0.01% Triton X-100, 500 ug/ml BSA, 20 U/ml SUPERase-In, 4 C; UNK is unkempt and MSI1 is Musashi-1; names of the RNAs are library labels; protein concentration not given here; high values mean tight binding
Sequence of UniProt Q61474 (Q61474 whole entry): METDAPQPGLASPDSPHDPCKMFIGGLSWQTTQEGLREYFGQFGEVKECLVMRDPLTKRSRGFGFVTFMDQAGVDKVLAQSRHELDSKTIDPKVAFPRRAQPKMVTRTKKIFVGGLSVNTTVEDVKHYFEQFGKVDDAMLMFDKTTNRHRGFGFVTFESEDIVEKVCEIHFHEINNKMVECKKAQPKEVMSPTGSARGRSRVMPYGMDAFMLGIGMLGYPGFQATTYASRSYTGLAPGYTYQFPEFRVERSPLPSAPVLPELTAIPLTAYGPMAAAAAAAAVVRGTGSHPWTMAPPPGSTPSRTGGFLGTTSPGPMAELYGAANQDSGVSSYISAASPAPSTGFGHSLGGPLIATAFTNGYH

Row | Binder | binding signal
1 | B1 | 0.324 enrichment R
2 | B2 | 0.28 enrichment R
3 | B3 | 0.436 enrichment R
4 | B4 | 11.6 enrichment R
5 | B5 | 3.75 enrichment R
6 | B6 | 2.38 enrichment R
7 | B7 | 0.257 enrichment R
8 | B8 | 0.702 enrichment R
9 | B9 | 0.774 enrichment R
10 | B10 | 1.11 enrichment R
11 | B11 | 0.514 enrichment R
12 | B12 | 0.821 enrichment R
13 | B13 | 1.55 enrichment R
14 | B14 | 0.526 enrichment R
15 | B15 | 0.49 enrichment R
16 | B16 | 0.297 enrichment R
17 | B17 | 0.569 enrichment R
18 | B18 | 0.514 enrichment R
19 | B19 | 0.483 enrichment R
20 | B20 | 0.705 enrichment R
21 | B21 | 0.399 enrichment R
22 | B22 | 0.902 enrichment R
